# Experimental data reported in the supplement of paper PMC8728848.
# This is one part of the list.
# B1: DC SIGN CRD (Homo sapiens), Q9NNX6 (protein)
# chain: QPCPWEWTFFQGNCYFMSNSQRNWHDSITACKEVGAQLVVIKSAEEQNFLQLQSSRSNRFTWMGLSDLNQEGTWQWVDGSPLLPSFKQYWNRGEPNNVGEEDCAEFSGNGWNDDKCNLAKFWICKKSAWSHPQFEK
# How the values were obtained:
# Assay in all cases: glycan array binding signal (z-score within array); higher = stronger binding
# Details in all cases: glycan notation: IUPAC condensed, linker removed
# [1] = biological target: Fuc(a1-2)Gal
# Summary of the method: (§1)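 Columns mapping to the same glycan were averaged after glycan names were converted to IUPAC-condensed notation. The data come from 3228 arrays in the Consortium for Functional Glycomics database, limited to those with an available protein sequence. Binding is reported as a within-array Z-score averaged across arrays of one protein sequence and across linkers.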
# [2] = biological target: Fuc(a1-2)Gal(b1-3)GalNAc
# Summary of the method: as §1
# [3] = biological target: Fuc(a1-2)Gal(b1-3)GalNAc(b1-3)Gal
# Summary of the method: as §1
# [4] = biological target: Fuc(a1-2)Gal(b1-3)GalNAc(b1-3)Gal(a1-4)Gal(b1-4)Glc
# Summary of the method: as §1
# [5] = biological target: Fuc(a1-2)Gal(b1-3)GalNAc(b1-3)Gal(b1-4)Glc
# Summary of the method: as §1
# [6] = biological target: Fuc(a1-2)Gal(b1-3)GalNAc(b1-4)[Neu5Ac(a2-3)]Gal(b1-4)Glc
# Summary of the method: as §1
# [7] = biological target: Fuc(a1-2)Gal(b1-3)[Fuc(a1-4)]GlcNAc
# Summary of the method: as §1
# [8] = biological target: Fuc(a1-2)Gal(b1-4)Glc
# Summary of the method: as §1
# [9] = biological target: Fuc(a1-2)Gal(b1-4)Glc6S
# Summary of the method: as §1
# [10] = biological target: Fuc(a1-2)Gal(b1-4)GlcNAc
# Summary of the method: as §1
# [11] = biological target: Fuc(a1-2)Gal(b1-4)GlcNAc(b1-3)Gal(b1-4)GlcNAc
# Summary of the method: as §1
# [12] = biological target: Fuc(a1-2)Gal(b1-4)GlcNAc(b1-3)Gal(b1-4)GlcNAc(b1-3)Gal(b1-4)GlcNAc
# Summary of the method: as §1
# [13] = biological target: Fuc(a1-2)Gal(b1-4)GlcNAc6S
# Summary of the method: as §1
# [14] = biological target: Fuc(a1-2)Gal(b1-4)[Fuc(a1-3)]GalNAc(b1-3)Gal(b1-4)[Fuc(a1-3)]GlcNAc
# Summary of the method: as §1
# [15] = biological target: Fuc(a1-2)Gal(b1-4)[Fuc(a1-3)]GalNAc(b1-3)Gal(b1-4)[Fuc(a1-3)]GlcNAc(b1-3)Gal(b1-4)[Fuc(a1-3)]GalNAc
# Summary of the method: as §1
# [16] = biological target: Fuc(a1-2)Gal(b1-4)[Fuc(a1-3)]GlcNAc
# Summary of the method: as §1
# [17] = biological target: Fuc(a1-2)Gal6S(b1-4)Glc
# Summary of the method: as §1
# [18] = biological target: Fuc(a1-2)Gal6S(b1-4)Glc6S
# Summary of the method: as §1
# [19] = biological target: Fuc(a1-2)Gal6S(b1-4)GlcNAc
# Summary of the method: as §1
# [20] = biological target: Fuc(a1-2)GlcNAc
# Summary of the method: as §1
# [21] = biological target: Fuc(a1-2)[Gal(a1-3)]Gal
# Summary of the method: as §1
# [22] = biological target: Fuc(a1-2)[Gal(a1-3)]Gal(b1-3)GlcNAc
# Summary of the method: as §1
# [23] = biological target: Fuc(a1-2)[Gal(a1-3)]Gal(b1-4)Glc
# Summary of the method: as §1
# [24] = biological target: Fuc(a1-2)[Gal(a1-3)]Gal(b1-4)GlcNAc
# Summary of the method: as §1
# [25] = biological target: Fuc(a1-2)[Gal(a1-3)]Gal(b1-4)[Fuc(a1-3)]GlcNAc
# Summary of the method: as §1
# [26] = biological target: Fuc(a1-2)[Gal(a1-4)]Gal(b1-4)GalNAc
# Summary of the method: as §1
# [27] = biological target: Fuc(a1-2)[GalNAc(a1-3)]Gal
# Summary of the method: as §1
# [28] = biological target: Fuc(a1-2)[GalNAc(a1-3)]Gal(b1-3)GlcNAc
# Summary of the method: as §1
# [29] = biological target: Fuc(a1-2)[GalNAc(a1-3)]Gal(b1-4)Glc
# Summary of the method: as §1
# [30] = biological target: Fuc(a1-2)[GalNAc(a1-3)]Gal(b1-4)GlcNAc
# Summary of the method: as §1
# [31] = biological target: Fuc(a1-2)[GalNAc(a1-3)]Gal(b1-4)[Fuc(a1-3)]GlcNAc
# Summary of the method: as §1
# [32] = biological target: Fuc(a1-2)[GalNAc(a1-4)]Gal(b1-4)GlcNAc
# Summary of the method: as §1
# [33] = biological target: Fuc(a1-3)GlcNAc
# Summary of the method: as §1
# [34] = biological target: Fuc(a1-3)[Gal(b1-4)]Glc6S
# Summary of the method: as §1
# [35] = biological target: Fuc(a1-3)[Gal(b1-4)]GlcNAc
# Summary of the method: as §1
# [36] = biological target: Fuc(a1-3)[Gal(b1-4)]GlcNAc(b1-3)Gal(b1-3)[Fuc(a1-4)]GlcNAc
# Summary of the method: as §1
# [37] = biological target: Fuc(a1-3)[Gal(b1-4)]GlcNAc(b1-4)Gal(b1-4)[Fuc(a1-3)]GlcNAc
# Summary of the method: as §1
# [38] = biological target: Fuc(a1-3)[Gal(b1-4)]GlcNAc(b1-4)Gal(b1-4)[Fuc(a1-3)]GlcNAc(b1-4)Gal(b1-4)[Fuc(a1-3)]GlcNAc
# Summary of the method: as §1
# [39] = biological target: Fuc(a1-3)[Gal(b1-4)]GlcNAc6S
# Summary of the method: as §1
# [40] = biological target: Fuc(a1-3)[Gal3S(b1-4)]Glc
# Summary of the method: as §1
# [41] = biological target: Fuc(a1-3)[Gal3S(b1-4)]Glc6S
# Summary of the method: as §1
# [42] = biological target: Fuc(a1-3)[Gal3S(b1-4)]GlcNAc
# Summary of the method: as §1
# [43] = biological target: Fuc(a1-3)[Gal3S(b1-4)]GlcNAc6S
# Summary of the method: as §1
# [44] = biological target: Fuc(a1-3)[GalNAc(b1-4)]Gal(b1-4)GlcNAc
# Summary of the method: as §1
# [45] = biological target: Fuc(a1-4)GlcNAc
# Summary of the method: as §1
# [46] = biological target: Fuc(b1-3)GlcNAc
# Summary of the method: as §1
# [47] = biological target: Gal(a1-2)Gal
# Summary of the method: as §1
# [48] = biological target: Gal(a1-3)Gal
# Summary of the method: as §1
# [49] = biological target: Gal(a1-3)Gal(b1-3)Glc
# Summary of the method: as §1
# [50] = biological target: Gal(a1-3)Gal(b1-3)GlcNAc
# Summary of the method: as §1
# [51] = biological target: Gal(a1-3)Gal(b1-4)GlcNAc
# Summary of the method: as §1
# [52] = biological target: Gal(a1-3)Gal(b1-4)[Fuc(a1-3)]GalNAc
# Summary of the method: as §1
# [53] = biological target: Gal(a1-3)GlcNAc
# Summary of the method: as §1
# [54] = biological target: Gal(a1-3)[Gal(a1-4)]Gal(b1-4)GlcNAc
# Summary of the method: as §1
# [55] = biological target: Gal(a1-4)Gal(b1-4)Gal
# Summary of the method: as §1
# [56] = biological target: Gal(a1-4)Gal(b1-4)GalNAc
# Summary of the method: as §1
# [57] = biological target: Gal(a1-4)GlcNAc
# Summary of the method: as §1
# [58] = biological target: Gal(a1-6)Glc
# Summary of the method: as §1
# [59] = biological target: Gal(b1-2)Gal
# Summary of the method: as §1
# [60] = biological target: Gal(b1-3)Gal
# Summary of the method: as §1
binder,measurement,setting,value
B1,glycan array binding signal (z-score),[1],0.574
same,glycan array binding signal (z-score),[2],-0.378
same,glycan array binding signal (z-score),[3],-0.391
same,glycan array binding signal (z-score),[4],-0.37
same,glycan array binding signal (z-score),[5],-0.393
same,glycan array binding signal (z-score),[6],-0.377
same,glycan array binding signal (z-score),[7],0.926
same,glycan array binding signal (z-score),[8],-0.124
same,glycan array binding signal (z-score),[9],-0.36
same,glycan array binding signal (z-score),[10],-0.124
same,glycan array binding signal (z-score),[11],-0.265
same,glycan array binding signal (z-score),[12],-0.35
same,glycan array binding signal (z-score),[13],-0.346
same,glycan array binding signal (z-score),[14],5.67
same,glycan array binding signal (z-score),[15],3.54
same,glycan array binding signal (z-score),[16],4.18
same,glycan array binding signal (z-score),[17],-0.242
same,glycan array binding signal (z-score),[18],-0.351
same,glycan array binding signal (z-score),[19],-0.212
same,glycan array binding signal (z-score),[20],0.652
same,glycan array binding signal (z-score),[21],0.666
same,glycan array binding signal (z-score),[22],-0.394
same,glycan array binding signal (z-score),[23],-0.339
same,glycan array binding signal (z-score),[24],-0.383
same,glycan array binding signal (z-score),[25],0.466
same,glycan array binding signal (z-score),[26],-0.259
same,glycan array binding signal (z-score),[27],0.028
same,glycan array binding signal (z-score),[28],-0.278
same,glycan array binding signal (z-score),[29],-0.178
same,glycan array binding signal (z-score),[30],-0.382
same,glycan array binding signal (z-score),[31],1.01
same,glycan array binding signal (z-score),[32],0.023
same,glycan array binding signal (z-score),[33],-0.201
same,glycan array binding signal (z-score),[34],0.201
same,glycan array binding signal (z-score),[35],1.99
same,glycan array binding signal (z-score),[36],2.33
same,glycan array binding signal (z-score),[37],2.15
same,glycan array binding signal (z-score),[38],5.8
same,glycan array binding signal (z-score),[39],0.951
same,glycan array binding signal (z-score),[40],1.1
same,glycan array binding signal (z-score),[41],0.12
same,glycan array binding signal (z-score),[42],-0.131
same,glycan array binding signal (z-score),[43],-0.123
same,glycan array binding signal (z-score),[44],1.09
same,glycan array binding signal (z-score),[45],0.409
same,glycan array binding signal (z-score),[46],1.39
same,glycan array binding signal (z-score),[47],-0.332
same,glycan array binding signal (z-score),[48],-0.356
same,glycan array binding signal (z-score),[49],-0.385
same,glycan array binding signal (z-score),[50],-0.343
same,glycan array binding signal (z-score),[51],-0.249
same,glycan array binding signal (z-score),[52],0.889
same,glycan array binding signal (z-score),[53],-0.254
same,glycan array binding signal (z-score),[54],-0.351
same,glycan array binding signal (z-score),[55],-0.355
same,glycan array binding signal (z-score),[56],-0.115
same,glycan array binding signal (z-score),[57],-0.378
same,glycan array binding signal (z-score),[58],-0.271
same,glycan array binding signal (z-score),[59],-0.316
same,glycan array binding signal (z-score),[60],-0.343
